From PubChem BioAssay (NCATS)
Values joined by “and” are separate entries in the source; they are usually repeats but may differ in a detail not shown here. Identical values can stand only once. Inconclusive results, whose numbers are uncertain, are shown with a selection of clear calls. For some of these results: Potencies beside an inconclusive call are fits to weak or partial responses and may not hold up. Active and inactive are the calls of the source. Unless noted, calls follow the shape of the dose curve; as a rule, active = well fitted curve in the direction sought with a large enough effect; inconclusive = small, poorly fitted or top-dose-only effect, or another doubt; inactive = no such curve, though single readings can be large; an effect the other way counts as inactive or inconclusive.

How the values were obtained:
[1] = Primary qHTS to identify inhibitors of SARS-CoV-2 cell entry (AID 1645846; calls by dose curve; also: nearly all actives have a fitted effect of over 45% in size)
Outline: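 Using luciferase-reporting pseudoviruses carrying Wuhan-Hu-1 spike, the screen tracks entry into stably ACE2-expressing cells over 48 hr. Activity is expressed relative to spike particles versus particles lacking any fusion protein.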

[2] = VSVG counterscreen qHTS to identify inhibitors of SARS-CoV-2 cell entry (AID 1645847; calls by dose curve; also: nearly all actives have a fitted effect of over 65% in size)
Outline: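 Entry of VSV-G pseudotyped particles into human ACE2-expressing HEK293 cells was measured by luciferase luminescence 48 h after infection, with compound added 1 h beforehand.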

[3] = Primary qHTS for inhibitors of nuclear receptor binding SET domain protein 2 (NSD2) in an isogenic RCH-ACV NSD2 p.E1099K mutant (9B) (AID 1645876); also: nearly all actives have a fitted effect of over 70% in size
[4] = biological target: N-terminal Xaa-Pro-Lys N-methyltransferase 1 (Homo sapiens) (UniProt Q9BV86); test: Confirmatory qHTS for Inhibitors of N-terminal methyltransferase 1 (NTMT1): MTaseGlo Assay (AID 1645874); also: nearly all actives have a fitted effect of over 65% in size
Sequence of UniProt Q9BV86 (Q9BV86 whole entry, looked up): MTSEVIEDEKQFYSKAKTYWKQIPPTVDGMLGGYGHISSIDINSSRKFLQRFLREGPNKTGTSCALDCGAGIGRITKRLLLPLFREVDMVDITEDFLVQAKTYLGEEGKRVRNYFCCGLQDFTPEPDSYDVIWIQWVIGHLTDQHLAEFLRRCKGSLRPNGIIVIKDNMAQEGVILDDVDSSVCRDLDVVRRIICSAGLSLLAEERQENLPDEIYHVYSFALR
Outline: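 qHTS format: NTMT1 125 nM, SAM 100 uM, peptide SPKRIA 1 uM final; 15 min compound preincubation, 30 min reaction at room temperature. MTase-Glo luminescence.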

[5] = biological target: Glutathione peroxidase 1 (Homo sapiens) (UniProt P07203); test: Primary qHTS Assay for Inhibitors of Recombinant Selenoprotein Glutathione Peroxidase 1 (GPX1) (AID 1845191); also: nearly all actives have a fitted effect of over 65% in size
Sequence of UniProt P07203 (P07203 whole entry, looked up): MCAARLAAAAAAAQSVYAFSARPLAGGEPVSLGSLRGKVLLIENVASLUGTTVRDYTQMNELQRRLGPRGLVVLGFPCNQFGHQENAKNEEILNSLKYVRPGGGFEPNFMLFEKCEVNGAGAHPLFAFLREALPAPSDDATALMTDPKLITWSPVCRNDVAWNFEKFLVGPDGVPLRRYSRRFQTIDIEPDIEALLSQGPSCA
Outline: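 GR-coupled assay: compounds preincubated 30 min at room temperature with GPX1, then reaction started with CHP; final 10 nM GPX1, 1 mM GSH, 0.5 mM CHP, 0.5 mM NADPH, 100 nM GR, 0.01% BSA, pH 7.5 Tris buffer. NADPH fluorescence (340/450 nm) read at 0 and 15 min.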

[6] = biological target: Phospholipid hydroperoxide glutathione peroxidase GPX4 (Homo sapiens) (UniProt P36969); test: Primary qHTS Assay for Inhibitors of Recombinant Selenoprotein Glutathione Peroxidase 4 (GPX4) (AID 1845192); also: nearly all actives have a fitted effect of over 65% in size
Sequence of UniProt P36969 (P36969 whole entry, looked up): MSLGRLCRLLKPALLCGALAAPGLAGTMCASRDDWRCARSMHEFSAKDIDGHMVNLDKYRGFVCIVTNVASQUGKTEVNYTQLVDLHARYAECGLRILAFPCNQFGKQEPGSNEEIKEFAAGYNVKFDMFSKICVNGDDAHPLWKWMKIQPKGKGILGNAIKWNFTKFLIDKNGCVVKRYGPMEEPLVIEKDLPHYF
Outline: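 GR-coupled assay: recombinant GPX4 preincubated 30 min with compound at room temperature; final 200 nM GPX4, 1 mM GSH, 0.5 mM cumene hydroperoxide, 0.5 mM NADPH, 100 nM GR, 0.01% BSA, pH 7.5 Tris. NADPH fluorescence (340/450 nm) read at 0 and 15 min.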

[7] = Primary qHTS for inhibitors of nuclear receptor binding SET domain protein 2 (NSD2) in an RCH-ACV wild type WT cells (2C) (AID 1645877); also: nearly all actives have a fitted effect of over 70% in size
Potency is read from the fitted curve at half-maximal effect; tags tell the direction and shape of the fitted curve.

SMILES: CN1CC[C@@H](c2c(O)cc(O)c3c(=O)cc(-c4ccccc4Cl)oc23)[C@@H](O)C1
- Potency [1]: inconclusive: 1.26 µM [inhibitor, full curve, poor fit]
- Potency [2]: active: 1.36 µM

SMILES: C=CC(=O)Nc1cc2c(Nc3ccc(F)c(Cl)c3)ncnc2cc1C#CC(C)(C)N1CCN(C)CC1
- Potency [1]: inconclusive: 3.55 µM [inhibitor, full curve, poor fit]

SMILES: Nc1nc2[nH]cc(CCc3ccc(C(=O)N[C@@H](CCC(=O)O)C(=O)O)cc3)c2c(=O)[nH]1
- Potency [1]: inconclusive: 3.55 µM [inhibitor, full curve, poor fit] and inconclusive: 2.24 µM [inhibitor, full curve, poor fit]

SMILES: CCOc1cc2ncc(C#N)c(Nc3ccc(OCc4ccccn4)c(Cl)c3)c2cc1NC(=O)/C=C/CN(C)C
- Potency [1]: active: 8.91 µM and active: 2.51 µM
- Potency [2]: inconclusive: 3.12 µM [inhibitor, partial curve]

SMILES: CCOc1ccccc1-n1c(C(C)N2CCN(C(=O)COc3ccc(Cl)cc3)CC2)nc2ccccc2c1=O (stereo unspecified)
- Potency [1]: active: 10 µM

SMILES: N#Cc1nn(-c2c(Cl)cc(C(F)(F)F)cc2Cl)c(N)c1S(=O)C(F)(F)F (stereo unspecified)
- Potency [1]: inconclusive: 39.8 µM [inhibitor, single point]
- Potency [3]: inconclusive: 21.1 µM [inhibitor, single point]

SMILES: NC(=O)c1c(OCc2c(F)cc(Br)cc2F)nsc1NC(=O)NCCCCN1CCCC1
- Potency [1]: inconclusive: 35.5 µM [inhibitor, partial curve, poor fit]

SMILES: Cc1cc(O)ccc1Cl
- Potency [1]: inactive

SMILES: C[C@@H](N)C1CCC(C(=O)Nc2ccncc2)CC1 (stereo partly specified)
- Potency [1]: inconclusive: 5.01 µM [inhibitor, partial curve, poor fit]

SMILES: Cc1ccc([N+](=O)[O-])[c]2c1[O][Hg]2
- Potency [1]: active: 5.62 µM
- Potency [4]: active: 728 nM
- Potency [3]: active: 0.0841 µM
- Potency [5]: inconclusive: 32.1 µM [inhibitor, single point]

SMILES: COP(=S)(OC)Oc1ccc(S(N)(=O)=O)cc1
- Potency [1]: inconclusive: 3.55 µM [inhibitor, single point]
- Potency [3]: inactive
- Potency [6]: inconclusive: 5.01 µM [inhibitor, partial curve]

SMILES: O=C(NC(=O)c1c(F)cccc1F)Nc1cc(Cl)c(OC(F)(F)C(F)C(F)(F)F)cc1Cl (stereo unspecified)
- Potency [1]: inconclusive: 39.8 µM [inhibitor, single point]
- Potency [3]: inconclusive: 21.1 µM [inhibitor, single point]
- Potency [7]: inconclusive: 29.9 µM [inhibitor, partial curve, poor fit]

SMILES: CCCCCCCCCCCCCCCC[N+](C)(C)C
- Potency [1]: active: 25.1 µM
- Potency [3]: active: 0.422 µM
- Potency [7]: active: 0.596 µM

SMILES: S=C(SSC(=S)N1CCCCC1)N1CCCCC1
- Potency [1]: active: 1.12 µM
- Potency [3]: inconclusive: 23.7 µM [inhibitor, single point]
- Potency [7]: inconclusive: 29.9 µM [inhibitor, single point]
- Potency [5]: active: 12.8 µM
- Potency [6]: inconclusive: 25.5 µM [inhibitor, partial curve]

SMILES: COc1ccc(Cc2nccc3cc(OC)c(OC)cc23)cc1OC
- Potency [1]: inconclusive: 10 µM [inhibitor, partial curve, poor fit] and inconclusive: 6.31 µM [inhibitor, full curve, poor fit]
- Potency [3]: inconclusive: 21.1 µM [inhibitor, partial curve]
- Potency [7]: inconclusive: 11.9 µM [inhibitor, partial curve] and active: 5.25 µM
- Potency [5]: inconclusive: 7.18 µM [inhibitor, full curve]

SMILES: Nc1ccccc1
- Potency [1]: inconclusive: 3.98 µM [inhibitor, single point]
- Potency [3]: inactive

SMILES: Cc1nnc2n1-c1sc(CCc3ccc(CC(C)C)cc3)cc1C(c1ccccc1Cl)=NC2C (stereo unspecified)
- Potency [1]: active: 22.4 µM
- Potency [3]: active: 7.5 µM
- Potency [7]: active: 8.41 µM
- Potency [6]: active: 25.5 µM

SMILES: C[N+]1(CCF)[C@@H]2CC[C@H]1CC(OC(=O)C(O)(c1ccccc1)c1ccccc1)C2 (stereo partly specified)
- Potency [1]: inconclusive: 6.31 µM [inhibitor, single point]
- Potency [3]: inactive

SMILES: O=c1[nH]c2ccccc2n1CCCN1CCC(n2c(=O)[nH]c3cc(Cl)ccc32)CC1
- Potency [1]: inconclusive: 39.8 µM [inhibitor, single point]
- Potency [3]: inconclusive: 26.6 µM [inhibitor, single point] and inconclusive: 33.2 µM [inhibitor, single point]
- Potency [7]: inconclusive: 26.6 µM [inhibitor, single point]
- Potency [5]: inconclusive: 29 µM [inhibitor, single point]
